Assay results published in PubChem BioAssay AID445 (National Center for Advancing Translational Sciences (NCATS), 2006).
Among all 110,000 compounds or so, about 40 (0.04%) were called active. Inconclusive results, whose numbers are uncertain, are shown with a selection of clear calls. Calls come from the whole dose curve; as a rule, active = well fitted curve in the direction sought with a large enough effect in the signal ratio (not every such curve was filed as active); inconclusive = small, poorly fitted or top-dose-only effect, or a change in a side signal; inactive = flat fitted curve, though single readings scatter; the % refers to the signal ratio. Potencies beside an inconclusive call are fits to weak or partial responses and may not hold up.

Test: IkB Signaling;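 for IkBa stabilization activation: 0% = basal untreated cells and 100% = reference inhibitor full response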
Details: ABC-DLBCL IkBa-CBG/CBR dual luciferase ratio (green luciferase fused to IkBa over red control in OCI-Ly3 lymphoma cells), 4 h; IkBa stabilization activation: at 57.1 µM (top of the series), scaled: untreated 0%, proteasome inhibitor 100% unless noted
In short: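 Luminescence ratio of IκBα-fused green versus native red beetle luciferase in OCI-Ly3 cells, 4 h post-doxycycline with compound; red signal alone, scaled from basal (0%) to zero light (-100%), flagged nonspecific or cytotoxic effects.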
Potency is the fitted concentration of half-maximal effect.

**Q.** Which IkBa stabilization activation does the source give for C=CCn1c(COc2ccc(Cl)cc2)nnc1SCc1ccc(C#N)cc1 here?
**A.** inconclusive: 1.96% [signal inhibitor]

**Q.** With Cc1ccc(S(=O)(=O)N(CCc2ccccc2)CC(=O)Nc2cc(C)ccc2C)cc1 as the molecule, how does the “IkBa stabilization activation” value read?
**A.** inactive: -1.4%

**Q.** Which IkBa stabilization activation does the source give for CN1CCN(c2ncc3nc(-c4cc(F)cc(F)c4)c(=O)n(C4CC4)c3n2)CC1 here?
**A.** inactive: -4.07% [at 11.4 µM, scaled: untreated 0%, proteasome inhibitor 100%]

**Q.** For CCOC(=O)c1cc(-c2ccc(C)cc2)n(CCC(=O)Nc2ccc(C(C)C)cc2)c1C, which IkBa stabilization activation is on record?
**A.** inconclusive: -0.69% [signal inhibitor]

**Q.** With C[C@@H]1CC2(OC3C[C@@]4(C)C5=CC[C@H]6C(C)(C)C(O[C@@H]7OC[C@@H](O)[C@H](O)[C@H]7O)CC[C@@]67C[C@@]57CC[C@]4(C)C31)OC(O)C1(C)OC21 (some centres not stated) as the molecule, how does the “IkBa stabilization activation” value read?
**A.** inactive: -1.32%

**Q.** With CC(=O)c1ccc(OCCCC(=O)N2CCN(S(=O)(=O)c3cccs3)CC2)cc1 as the molecule, how does the IkBa stabilization activation read?
**A.** inconclusive: 3.86% [signal inhibitor]

**Q.** Which IkBa stabilization activation does the source give for Cc1ccc(Cl)cc1NC(=O)CC(O)(C(F)(F)F)C(F)(F)F here?
**A.** inconclusive: -2.63% [signal inhibitor]

**Q.** For Cc1cccc(NC(=O)CS(=O)(=O)c2nc(-c3ccccc3)cn2-c2cccc(Cl)c2)c1C, which IkBa stabilization activation is on record?
**A.** inconclusive: 4.72% [signal inhibitor]

**Q.** Which IkBa stabilization activation does the source give for O=C(Nc1ccc2nc(-c3cccs3)[nH]c2c1)c1cccs1 here?
**A.** inconclusive: 0.792% [signal inhibitor]

**Q.** For O=c1nc2n(c3c1oc1ccccc13)Cc1ccccc1-2, which “IkBa stabilization activation” value is on record?
**A.** inactive: 0.202%

**Q.** For CCOc1ccccc1NC(=O)c1nc2nc(C)cc(C(F)F)n2n1, which IkBa stabilization activation is on record?
**A.** inconclusive: 5.25% [signal inhibitor]

**Q.** For COc1cccc(N2CCN(C(=O)C3CCN(S(=O)(=O)c4c(C)noc4C)CC3)CC2)c1, which IkBa stabilization activation is on record?
**A.** inconclusive: 2.36% [signal inhibitor]

**Q.** For COc1cccc(-c2nc(CS(=O)(=O)CC(=O)Nc3c(C)cc(C)cc3C)c(C)o2)c1, which IkBa stabilization activation is on record?
**A.** inconclusive: 4.52% [signal inhibitor]

**Q.** For O=C(C1CC1)N1CCc2cc(Br)cc(S(=O)(=O)NCC3COc4ccccc4O3)c21 (configuration not stated), which IkBa stabilization activation is on record?
**A.** inconclusive: 2.47% [signal inhibitor]

**Q.** For CCOC(=O)N1CCc2c(sc3c2c(=O)n(-c2ccc(CC)cc2)c(=O)n3CC(=O)Nc2ccc(C)cc2)C1, which IkBa stabilization activation is on record?
**A.** inconclusive: 7.32% [signal inhibitor]

**Q.** Which IkBa stabilization activation does the source give for COc1ccc(Cl)c(Cn2c(NCc3ccco3)nc3c2c(=O)n(C)c(=O)n3C)c1 here?
**A.** inconclusive: 3.04% [signal inhibitor]

**Q.** With O=C(NCc1ccccn1)c1ccc(COc2ccc(Cl)cc2)o1 as the molecule, how does the IkBa stabilization activation read?
**A.** inconclusive: 0.242% [signal inhibitor]

**Q.** With CN1CCN(C(=O)c2cnn3c(C(F)(F)F)cc(-c4ccc5c(c4)OCO5)nc23)CC1 as the molecule, how does the “IkBa stabilization activation” value read?
**A.** inactive: -2.15%

**Q.** With Cc1ccc2oc(=O)n(CCCOc3ccc(Cl)cc3)c2c1 as the molecule, how does the IkBa stabilization activation read?
**A.** inconclusive: 8.46% [signal inhibitor]

**Q.** With CNS(=O)(=O)c1cccc(C(=O)OCc2cc(Cl)cc3c2OCOC3)c1 as the molecule, how does the IkBa stabilization activation read?
**A.** inconclusive: 10.8% [signal inhibitor]

**Q.** Which IkBa stabilization activation does the source give for Cc1ccc2scc(N3CCN(c4ccc(F)cc4)CC3)c(=O)c2c1 here?
**A.** inconclusive: -0.534% [signal inhibitor]

**Q.** With O=C1c2[nH]nc(-c3ccc(Br)cc3)c2C(c2cccc(O)c2)N1c1ccc(Cl)cc1 (configuration not stated) as the molecule, how does the IkBa stabilization activation read?
**A.** inconclusive: -2.05% [signal inhibitor]

**Q.** With O=C(NCc1ccc(Cl)cc1)c1cnc2sc(N3CCCC3)nn2c1=O as the molecule, how does the “IkBa stabilization activation” value read?
**A.** inactive: 1.44%

**Q.** With CCOc1ccc(C(c2c(O)cc(C)n(CCOC)c2=O)N2CCC(C)CC2)cc1 (configuration not stated) as the molecule, how does the IkBa stabilization activation read?
**A.** inconclusive: 1.91% [signal inhibitor]

**Q.** Which IkBa stabilization activation does the source give for COc1ccc(Cl)cc1NC(=O)CN(c1cccc(C)c1C)S(=O)(=O)c1ccccc1 here?
**A.** inconclusive: 4.72% [signal inhibitor]

**Q.** Which IkBa stabilization activation does the source give for O=C(CC1N=C2c3ccccc3N=C(SCc3ccccc3F)N2C1=O)NCc1ccc2c(c1)OCO2 (configuration not stated) here?
**A.** inconclusive: 1.82% [signal inhibitor]

**Q.** Which IkBa stabilization activation does the source give for COc1ccc(C2c3c(n(C)c4ccccc34)C(=O)N2CC(=O)Nc2ccccc2F)cc1 (configuration not stated) here?
**A.** inconclusive: 2.73% [signal inhibitor]

**Q.** Which IkBa stabilization activation does the source give for COc1ccc(CCNC(=O)c2ccc3c(c2)N(Cc2cccc(Cl)c2)C(=O)CS3)cc1OC here?
**A.** inconclusive: 5.41% [signal inhibitor]

**Q.** With CCc1ccc(CNC(=O)c2cc(-c3ccc(Cl)s3)nc3ccccc23)cc1 as the molecule, how does the “IkBa stabilization activation” value read?
**A.** inactive: 0.204%

**Q.** Which IkBa stabilization activation does the source give for Cc1ccc(CCNC(=O)c2ccc(CSCc3ccccc3Cl)o2)cc1 here?
**A.** inconclusive: 0.0271% [signal inhibitor]

**Q.** For Cc1ccc(C2/C(=C(\O)c3c(C)nc4ccccn34)C(=O)C(=O)N2CCCN(C)C)o1 (configuration not stated), which “IkBa stabilization activation” value is on record?
**A.** inactive: -1.93%

**Q.** Which IkBa stabilization activation does the source give for COCCCNc1nc2c(S(=O)(=O)c3ccc(C)c(C)c3)nnn2c2ccc(Cl)cc12 here?
**A.** inconclusive: 1.98% [signal inhibitor]

**Q.** For Cc1ccc2oc(-c3cc(NC(=O)c4ccco4)ccc3Cl)nc2c1, which IkBa stabilization activation is on record?
**A.** inconclusive: 10.5% [signal inhibitor]

**Q.** With CCN(CC)CCNC(=O)c1nn(C)c2c1CS(=O)(=O)c1ccccc1-2 as the molecule, how does the IkBa stabilization activation read?
**A.** inconclusive: -1.29% [signal inhibitor]

**Q.** For CCOC(=O)c1ccc(N2C(=O)c3n[nH]c(-c4ccco4)c3C2c2ccc(O)c(OC)c2)cc1 (configuration not stated), which IkBa stabilization activation is on record?
**A.** inconclusive: -0.414% [signal inhibitor]

**Q.** With Cc1ccc(CNC(=O)c2nn(C)c3c2CS(=O)(=O)c2ccccc2-3)cc1 as the molecule, how does the IkBa stabilization activation read?
**A.** inconclusive: -0.327% [signal inhibitor]

**Q.** Which “IkBa stabilization activation” value does the source give for C=CCn1c(-c2ccc(OC)cc2)nc2ccccc21 here?
**A.** inactive: -0.949%

**Q.** For COc1ccc2oc(C(=O)OCC(=O)c3ccc4c(c3)OCCO4)c(C)c2c1, which “IkBa stabilization activation” value is on record?
**A.** inactive: 0.444%

**Q.** For O=C(Nc1nc2nc(-c3ccccc3)cc(=O)n2[nH]1)c1ccc(Cl)cc1, which IkBa stabilization activation is on record?
**A.** inconclusive: -1.16% [signal inhibitor]

**Q.** Which IkBa stabilization activation does the source give for COC(=O)c1ccccc1NC(=O)COC(=O)c1ccc(C)c(NC(=O)c2ccco2)c1 here?
**A.** inconclusive: 3.85% [signal inhibitor]

**Q.** With CCS(=O)(=O)N1CCc2cc(C(=O)NCc3ccccc3)ccc21 as the molecule, how does the “IkBa stabilization activation” value read?
**A.** inactive: -0.188%

**Q.** For Cc1ccc(-c2nc3nc(C)cc(Nc4ccccc4O)n3n2)cc1, which IkBa stabilization activation is on record?
**A.** inconclusive: 17% [signal inhibitor]

**Q.** For NC(=O)c1cc(-c2ccccc2)sc1NC(=O)Cc1ccc(S(=O)(=O)N2CCOCC2)s1, which IkBa stabilization activation is on record?
**A.** inconclusive: 6.36% [signal inhibitor]

**Q.** With Cc1nc2cnc(N(C)C)nc2n(CCC#N)c1=O as the molecule, how does the IkBa stabilization activation read?
**A.** inactive: -0.203% [at 11.4 µM, scaled: untreated 0%, proteasome inhibitor 100%]

**Q.** With Cc1ccc(N)cc1O as the molecule, how does the “IkBa stabilization activation” value read?
**A.** inactive: 2.13%

**Q.** For CCOc1ccc(CCNC(=O)CCCn2c(=O)c3cccn3c3ccccc32)cc1, which IkBa stabilization activation is on record?
**A.** inconclusive: 1.54% [signal inhibitor]

**Q.** With COC(=O)NCC(c1cccnc1)N1CCN(c2ccc(F)cc2)CC1 (configuration not stated) as the molecule, how does the “IkBa stabilization activation” value read?
**A.** inactive: -2.76%

**Q.** Which IkBa stabilization activation does the source give for Cc1ccc(Cl)cc1NC(=O)C(C)n1nc(-c2ccccc2)ccc1=O (configuration not stated) here?
**A.** inconclusive: 9.2% [signal inhibitor]

**Q.** Which “IkBa stabilization activation” value does the source give for Cn1c(C(=O)N2CCc3ccccc32)cc2c(=O)n3ccccc3nc21 here?
**A.** inactive: 0.533%

**Q.** With O=C(NCc1ccco1)c1sc(=S)n2c1[nH]c(=O)c1ccccc12 as the molecule, how does the IkBa stabilization activation read?
**A.** inconclusive: 0.00262% [signal inhibitor]

**Q.** With Cc1cc(NC(=O)COC(=O)C(Nc2ccc(C(F)(F)F)cc2Cl)C(C)C)no1 (configuration not stated) as the molecule, how does the IkBa stabilization activation read?
**A.** inconclusive: -0.37% [signal inhibitor]

**Q.** Which Potency does the source give for COc1ccc(C2=CC(c3ccccc3Cl)n3nc(-c4ccc(Cl)cc4)nc3N2)cc1 (configuration not stated) here?
**A.** inconclusive: 20 µM [signal inhibitor]

**Q.** Which IkBa stabilization activation does the source give for Cc1ccc(Cl)cc1N1CCN(C(=O)Cn2cnc3sc(C)c(S(=O)(=O)N4CCC(C)CC4)c3c2=O)CC1 here?
**A.** inconclusive: 1.89% [signal inhibitor]

**Q.** For Cc1ccc2c(c1)c1c(n2CC(O)Cn2c(C)nc3ccccc32)/C(=N\O)CCC1 (configuration not stated), which IkBa stabilization activation is on record?
**A.** inconclusive: -1.2% [signal inhibitor]

**Q.** Which IkBa stabilization activation does the source give for Cc1nc2nc(NCc3ccc(Cl)cc3)[nH]n2c(=O)c1Cc1ccccc1 here?
**A.** inconclusive: 5.98% [signal inhibitor]

**Q.** Which IkBa stabilization activation does the source give for CCCn1c(CCC(=O)Nc2ccc(OCC)cc2)nc2cccnc21 here?
**A.** inconclusive: 0.993% [signal inhibitor]

**Q.** For O=C(NCCCn1ccnc1)C(F)(F)C(F)(F)C(=O)NCCCn1ccnc1, which “IkBa stabilization activation” value is on record?
**A.** inactive: -0.214%

**Q.** Which IkBa stabilization activation does the source give for CC(=O)Nc1ccc(-c2nc3c(C)cccc3[nH]2)cc1 here?
**A.** inconclusive: 1.55% [signal inhibitor]

**Q.** With COc1ccccc1N1CCN(CCCNC(=O)c2cnn(-c3cccc(Cl)c3)c2C2CCN(C(=O)OC(C)(C)C)CC2)CC1 as the molecule, how does the IkBa stabilization activation read?
**A.** inconclusive: -3.92% [signal inhibitor]

**Q.** With Cc1ccc(CN2C(=O)C3(c4ccccc42)N(c2cccc(F)c2)C(=O)CS3(=O)=O)cc1 (configuration not stated) as the molecule, how does the IkBa stabilization activation read?
**A.** inconclusive: 1% [signal inhibitor]

**Q.** With CCOc1ccc(CNC(=O)Cn2cc3c(n2)-c2c(oc(C(=O)N4CCOCC4)c2C)CC3)cc1 as the molecule, how does the IkBa stabilization activation read?
**A.** inconclusive: 1% [signal inhibitor]

**Q.** Which “IkBa stabilization activation” value does the source give for Cc1ccccc1CN1CCC(CNc2ncnc3onc(-c4ccc(F)cc4)c23)CC1 here?
**A.** inactive: -0.699%

**Q.** Which “IkBa stabilization activation” value does the source give for CCc1cccc(-n2nnc(-c3nsc(NC(=O)c4cccs4)n3)c2C)c1 here?
**A.** inactive: -0.981%

**Q.** Which Potency does the source give for CC(=O)Nc1ccc2nc(-c3cc(C)ccc3C)[nH]c2c1 here?
**A.** inconclusive: 25.1 µM [signal activator, partial curve]

**Q.** With Cc1ccc(OCc2ccc(-c3nc(C#N)c(NCc4cccnc4)o3)o2)cc1 as the molecule, how does the IkBa stabilization activation read?
**A.** inconclusive: 6.33% [signal inhibitor]

**Q.** Which “IkBa stabilization activation” value does the source give for CN(C)c1ccc(C2N(c3cccc(Cl)c3)C(=O)C3CCCN32)cc1 (configuration not stated) here?
**A.** inactive: -0.348%

**Q.** With COc1ccccc1N1CCN(S(=O)(=O)c2c(C)sc3ncn(CC(=O)N(C)c4ccc(Cl)cc4)c(=O)c23)CC1 as the molecule, how does the IkBa stabilization activation read?
**A.** inconclusive: 4.27% [signal inhibitor]
